Results taken from PubChem BioAssay AID1454 (National Center for Advancing Translational Sciences (NCATS), 2008).
Out of some 130,000 compounds screened, about 550 (0.42%) were called active. Inconclusive results, whose numbers are uncertain, are shown with a selection of clear calls. Calls come from the whole dose curve; as a rule, active = well fitted inhibition curve with a large enough effect; inconclusive = small, poorly fitted or top-dose-only effect, or effect the other way; inactive = flat fitted curve, though single readings scatter. No potency is given beside an inconclusive call; the fits are too rough.
Potency is the fitted concentration of half-maximal effect; tags give direction and shape of the fitted curve.

Assay: qHTS Assay for Inhibitors of the ERK Signaling Pathway using a Homogeneous Screening Assay; Stimulation with EGF; note: nearly all actives have a fitted effect of over 55% in size
Conditions: HEK293-V1b, EGF-stimulated phospho-ERK AlphaScreen
Outline: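 Stably V1b-transfected HEK293 cells; 30 min compound, then EGF 25 nM final for 5 min at 37C; 10 min lysis; phospho-ERK by AlphaScreen after 5 hr beads at room temperature.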
With `CC1CCCCN1C(=O)c1cc2nc(-c3ccccc3)cc(-c3ccccc3)n2n1` (configuration not stated) the Potency was inconclusive [activator, partial curve].
For `COc1ccc(C(=O)N2CCN(Cc3nc(CC4CC4)no3)CC2)cc1`, the Potency was “inactive”.
For `Cc1nc(N2CCN(C(=O)c3ccco3)CC2)c2c3c(sc2n1)CC(C)CC3` (configuration not stated), the Potency was inconclusive [inhibitor, single point].
With `Cc1ccc(C)c(N2CCN(C(=O)C34CC5CC(C3)CC(n3nnc(C)n3)(C5)C4)CC2)c1` the Potency was inconclusive [inhibitor, partial curve, poor fit].
In the case of `O=C1CC(c2ccccc2)Sc2nc3ccccc3n21` (configuration not stated), the Potency is reported as inconclusive [inhibitor, single point].
With `COc1ccc(CNc2ncnc3cc(OC)c(OC)cc23)cc1OC` the Potency was “inactive”.
In the case of `CCOc1ccc(-n2cc(-c3ccccc3)c3c(N4CCOCC4)ncnc32)cc1`, the Potency is reported as inconclusive [inhibitor, partial curve].
For `COc1ccc(CCNc2ccc(N3C(=O)CC(C)C3=O)cc2[N+](=O)[O-])cc1OC` (configuration not stated), the Potency was inconclusive [inhibitor, partial curve].
With `O=C(OCCN1CCCCC1)C1(c2ccccc2)CCCC1` the Potency was inconclusive [inhibitor, single point].
In the case of `N#C/C(=C(/O)C(Cl)(Cl)Cl)c1nc2ccccc2[nH]1`, the Potency is reported as inconclusive [inhibitor, single point].
For `Cc1cccc(N2CCN(C(=O)c3ccc4nc(N5CCCCC5)sc4c3)CC2)c1C`, the Potency was inconclusive [inhibitor, partial curve].
For `FC(F)(F)c1cccc(-c2noc(-c3cc(-c4ccccc4)c(C(F)(F)F)s3)n2)c1`, the Potency was “inactive”.
With `O=[N+]([O-])c1c(C(Cl)Cl)nn(-c2ccc(Cl)cc2)c1N1CCCCC1` the Potency was inconclusive [inhibitor, partial curve].
For `CCCOc1cc(C)c(S(=O)(=O)N2CCOCC2)cc1C`, the Potency was “inactive”.
With `CCCCC[C@H](O)/C=C/[C@H]1OC(=O)C[C@H](O)[C@@H]1C/C=C\CCCC(=O)O` the Potency was “inactive”.
For `CCOC(=O)c1c(NC(=O)C2CC2)sc(C)c1CC`, the Potency was inconclusive [inhibitor, single point].
In the case of `COc1cc2c(cc1OC)C(c1cccs1)N(C(=O)c1ccncc1)CC2` (configuration not stated), the Potency is reported as inconclusive [inhibitor, single point].
With `CC(=O)Nc1ccc(-c2csc(NC(=O)Nc3ccccc3)n2)cc1` the Potency was active: 25.1 µM.
In the case of `Cc1ccc(Cl)cc1NC(=O)COC(=O)C12CC3CC(CC(C3)C1)C2`, the Potency is reported as inconclusive [inhibitor, single point].
For `NS(=O)(=O)c1ccc(Nc2nc(-c3cccc([N+](=O)[O-])c3)cs2)cc1`, the Potency was inconclusive [inhibitor, single point].
For `CCc1ccccc1NC(=S)NCC1CCN(c2ccc(OC)cc2)C1` (configuration not stated), the Potency was active: 14.1 µM.
For `CCN(CC(=O)Nc1cccc(S(N)(=O)=O)c1)Cc1nc2ccccc2c(=O)[nH]1`, the Potency was inconclusive [inhibitor, partial curve].
For `Cn1c(=O)c(C(=O)COC(=O)c2cc(C(F)(F)F)nc3c(C(F)(F)F)cccc23)c(N)n(CC2CC2)c1=O`, the Potency was inconclusive [inhibitor, single point].
In the case of `O=C1C(SCCO)=C(SCCO)C(=O)c2ccccc21`, the Potency is reported as inconclusive [inhibitor, single point].
For `O=C(COc1ccc(-c2ccccc2)cc1)N/N=C/c1cc(O)ccc1Br`, the Potency was inconclusive [inhibitor, single point].
With `CCCc1c(C(=O)NNc2ccc(C)cc2)cnn1-c1ccccc1` the Potency was inconclusive [inhibitor, partial curve].
For `Cc1cc(O)c(C)c2c1CC[C@H]1[C@H](C)C(=O)O[C@H]21`, the Potency was “inactive”.
For `CCc1ccc(NC(=O)C(=O)N/N=C(\C)CC(=O)NCc2ccc(Cl)cc2)cc1`, the Potency was inconclusive [inhibitor, partial curve].
For `CC(=O)OC1CC(OC(C)=O)[C@]2(C)C(CC(O)[C@]3(C)C2CC[C@@]2(C)C(c4ccoc4)OC(=O)C4O[C@]432)C1(C)C` (some centres not stated), the Potency was “inactive”.
In the case of `CC(C)(C)c1ccc(C(=O)NCCCN2CCN(CCCNC(=O)c3ccc(C(C)(C)C)cc3)CC2)cc1`, the Potency is reported as inconclusive [inhibitor, single point].
With `Cc1cc(N2C(=O)c3ccc(C(=O)NCc4ccccc4)cc3C2=O)no1` the Potency was inconclusive [activator, partial curve].
For `CC1CCCCN1Cc1c(O)ccc2c(=O)c(-c3nc4ccccc4s3)c(N)oc12` (configuration not stated), the Potency was inconclusive [inhibitor, partial curve].
In the case of `CCCC/C=C/C(NC(=O)C(C)(C)C)c1ccccc1` (configuration not stated), the Potency is reported as “inactive”.
For `O=C(NNC(=S)NC1CCCCC1)c1ccccc1O`, the Potency was inconclusive [inhibitor, partial curve].
In the case of `CCCCOc1ccc(C(NC(=O)OCC)NC(=O)OCC)cc1`, the Potency is reported as inconclusive [inhibitor, single point].
In the case of `COCCn1c(=O)c(CCc2ccccc2)nc2cnc(N3CCN(C)CC3)nc21`, the Potency is reported as “inactive”.
In the case of `Brc1ccc2[nH]c3c(NCc4ccccn4)ncnc3c2c1`, the Potency is reported as inconclusive [inhibitor, single point].
With `CC(=C/c1ccccc1)/C=N/N1CCN(Cc2ccc(C)cc2)CC1` the Potency was inconclusive [inhibitor, single point].
In the case of `CCN(CC)c1ccc(C(=S)NC2CCCCC2)cc1`, the Potency is reported as inconclusive [inhibitor, partial curve].
With `COc1ccc(NS(=O)(=O)c2ccc(NC(=S)NC(=O)/C=C/c3ccccc3)cc2)nn1` the Potency was “inactive”.
For `Cc1csc(Nc2ccc(Cl)cc2)[n+]1-c1ccc(Cl)cc1`, the Potency was inconclusive [inhibitor, partial curve].
With `CN1C(=CC=C2C=C(I)C(=O)C(I)=C2)C(C)(C)c2ccccc21` the Potency was active: 12.6 µM.
With `COc1ccccc1N1CCN(/N=C/c2cccc(OC)c2O)CC1` the Potency was “inactive”.
For `Cc1nc(Cl)sc1C(=O)Nc1cccc2ccccc12`, the Potency was “inactive”.
With `CCOc1ccc(/C(CCC(=O)O)=N/NC(=S)NC(C)C)cc1` the Potency was inconclusive [inhibitor, single point].
With `O=C(/C=C/c1ccccc1)Nc1cccc(S(=O)(=O)Nc2ccccc2F)c1` the Potency was inconclusive [inhibitor, single point].
For `Cc1cccc(C(=O)NCCc2n[nH]c(=S)n2C)c1`, the Potency was inconclusive [activator, full curve, poor fit].
In the case of `C=CCC(C)(O)/C=C/c1ccccc1` (configuration not stated), the Potency is reported as “inactive”.
For `O=C1N=c2ccccc2=C1c1sc(=S)n(Cc2ccccc2Cl)c1O`, the Potency was inconclusive [inhibitor, partial curve].
With `CC(C)[C@H](NC(=O)NCc1ccc(F)cc1)C(=O)O` the Potency was inconclusive [inhibitor, full curve, poor fit].
For `C[C@@H]1OC(Nc2ccc(N=Nc3ccccc3)cc2)[C@H](O)[C@H](O)[C@H]1O` (some centres not stated), the Potency was inconclusive [inhibitor, single point].
With `O=c1c2ccccc2c(C=NCCCN2CCOCC2)c(O)n1Cc1ccc2c(c1)OCO2` the Potency was inconclusive [inhibitor, single point].
For `C[C@H]1C=C(C(=O)N2CCN(Cc3ccc4c(c3)OCO4)CC2)O[C@@H](OCc2ccc(CO)cc2)C1`, the Potency was inconclusive [inhibitor, single point].
In the case of `CCCCCCN(CCCCCC)C(=O)Cc1c(-c2ccc(Cl)cc2)[nH]c2ccc(Cl)cc12`, the Potency is reported as “inactive”.
For `C[C@H]1C(O)[C@@]23CCC4C5(C=[N+](CCO)C[C@]4(C)CCC5)C2C[C@@H]1C3` (some centres not stated), the Potency was “inactive”.
With `COc1ccc([N+](=O)[O-])cc1NC(=O)Nc1ccccc1` the Potency was inconclusive [inhibitor, single point].
With `Cc1cccc(OCC(O)CN2CCN(CCN3C(=O)c4cccc5cccc(c45)C3=O)CC2)c1C` (configuration not stated) the Potency was inconclusive [inhibitor, partial curve].
In the case of `COC(=O)Cc1ccc(NC(=S)N2CCN(c3cc(Cl)ccc3C)CC2)cc1`, the Potency is reported as inconclusive [inhibitor, partial curve, poor fit].
With `CC(=O)Nc1ccc(OCCOc2ccc(/C=C3/C(=N)N4C=CSC4=NC3=O)cc2)cc1` the Potency was inconclusive [inhibitor, single point].
With `COc1cccc(OCC(O)CO)c1` (configuration not stated) the Potency was inconclusive [activator, partial curve].
In the case of `CCOC(=O)C1(CC2CC2)CCN(S(=O)(=O)C[C@]23CC[C@H](CC2=O)C3(C)C)CC1`, the Potency is reported as “inactive”.
With `COc1ccc(-c2cn[nH]c2-c2ccc(OCc3ccccc3)cc2O)cc1OC` the Potency was active: 22.4 µM.
For `COc1ccc(NS(=O)(=O)c2cccc(NC(=O)c3ccc(Cl)nc3)c2)cc1`, the Potency was inconclusive [inhibitor, partial curve].
For `CC(C)(C)c1nnc(N/N=C/c2cc(Br)ccc2O)n(N)c1=O`, the Potency was inconclusive [inhibitor, single point].
For `O=C(c1ccc(S(=O)(=O)N2CCCC2)cc1)N1CCC(CN2C(=O)c3cccc4cccc(c34)C2=O)CC1`, the Potency was “inactive”.
For `O=C1CCCC2=C1C(c1ccc(O)c(O)c1)Nc1ccc3ncccc3c12` (configuration not stated), the Potency was inconclusive [inhibitor, single point].
For `COCCN=c1scc(-c2cccs2)n1/N=C(\C)c1ccco1`, the Potency was inconclusive [inhibitor, partial curve].
